Common to all, as to assay: co-IP; immunoprecipitation from 200-500 ug protein lysates of primary human VSMCs with antibodies to Cav-1, total DJ1, Nox5 or Nox1; immunoblot of the precipitates for Cav-1, Nox1, Nox5 and DJ1
The target of assay [1] is caveolin-1 (human (endogenous in primary VSMCs)) (UniProt Q03135).
The target in assay [2] is Nox1 (human (endogenous in primary VSMCs)) (UniProt Q9Y5S8).
Assay [3] addresses T1, Nox5 (human (endogenous in primary VSMCs)) (UniProt Q96PH1).
T1 sequence: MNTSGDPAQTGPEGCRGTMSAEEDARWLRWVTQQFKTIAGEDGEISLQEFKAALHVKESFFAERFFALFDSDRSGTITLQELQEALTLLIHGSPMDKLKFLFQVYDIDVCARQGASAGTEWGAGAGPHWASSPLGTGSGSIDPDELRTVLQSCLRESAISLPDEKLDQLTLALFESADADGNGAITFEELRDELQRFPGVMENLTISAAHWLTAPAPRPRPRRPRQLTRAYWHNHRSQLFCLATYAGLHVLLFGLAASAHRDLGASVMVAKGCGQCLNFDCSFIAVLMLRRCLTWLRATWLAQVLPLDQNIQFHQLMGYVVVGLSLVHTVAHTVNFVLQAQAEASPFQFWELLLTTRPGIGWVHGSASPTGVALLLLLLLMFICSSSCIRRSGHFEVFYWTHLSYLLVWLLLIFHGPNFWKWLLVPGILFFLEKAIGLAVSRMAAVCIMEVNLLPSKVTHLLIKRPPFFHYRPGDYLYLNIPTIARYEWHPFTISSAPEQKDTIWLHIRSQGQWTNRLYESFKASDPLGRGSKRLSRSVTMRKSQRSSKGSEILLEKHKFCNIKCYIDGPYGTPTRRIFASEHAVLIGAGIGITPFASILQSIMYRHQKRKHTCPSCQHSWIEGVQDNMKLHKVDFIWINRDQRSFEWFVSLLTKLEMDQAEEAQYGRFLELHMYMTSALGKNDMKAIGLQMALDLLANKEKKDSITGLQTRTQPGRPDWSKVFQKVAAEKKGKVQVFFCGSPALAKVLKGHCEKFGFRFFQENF

By UniProt entry, the sequences of proteins in these tests, tags left out.
UniProt Q03135: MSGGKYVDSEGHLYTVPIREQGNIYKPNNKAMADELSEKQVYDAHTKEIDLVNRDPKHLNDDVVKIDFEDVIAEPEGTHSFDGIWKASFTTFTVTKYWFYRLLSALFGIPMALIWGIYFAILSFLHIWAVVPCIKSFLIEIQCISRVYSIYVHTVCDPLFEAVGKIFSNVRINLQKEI
UniProt Q9Y5S8: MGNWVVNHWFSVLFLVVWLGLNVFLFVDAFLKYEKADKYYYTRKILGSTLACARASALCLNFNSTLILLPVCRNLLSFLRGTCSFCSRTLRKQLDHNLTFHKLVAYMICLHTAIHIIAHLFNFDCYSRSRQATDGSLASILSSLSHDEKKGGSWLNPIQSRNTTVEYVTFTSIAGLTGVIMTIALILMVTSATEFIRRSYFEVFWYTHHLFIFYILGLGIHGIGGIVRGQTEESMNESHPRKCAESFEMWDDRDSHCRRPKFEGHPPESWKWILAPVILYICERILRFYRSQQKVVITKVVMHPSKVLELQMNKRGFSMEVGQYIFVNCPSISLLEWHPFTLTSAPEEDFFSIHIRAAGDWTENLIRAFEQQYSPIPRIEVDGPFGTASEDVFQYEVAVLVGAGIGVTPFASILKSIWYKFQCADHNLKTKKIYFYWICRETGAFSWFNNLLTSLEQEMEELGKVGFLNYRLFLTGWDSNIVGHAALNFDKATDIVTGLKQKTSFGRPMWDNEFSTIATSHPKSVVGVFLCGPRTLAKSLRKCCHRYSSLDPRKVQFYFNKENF
UniProt Q99497: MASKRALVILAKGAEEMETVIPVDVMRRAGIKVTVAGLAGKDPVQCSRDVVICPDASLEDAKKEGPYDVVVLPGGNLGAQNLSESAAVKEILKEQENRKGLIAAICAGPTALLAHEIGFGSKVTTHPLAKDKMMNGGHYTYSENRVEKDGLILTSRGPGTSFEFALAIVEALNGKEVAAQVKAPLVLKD

These are yes or no findings as the source states them, for the method shown. In cells and extracts the contact can be indirect. Some entries that bind do so weakly or less than the wild type.

Experimental findings from paper PMC7575553 are described below.

“Nox1 (from UniProt Q9Y5S8 1-564) (enzyme)”: the binding entry in assay [1] is on record as “binds”. With “PARK7 (Parkinson's disease protein-7) (from UniProt Q99497 1-189)”, the binding result is listed as “binds” in assay [1], “binds” in assay [2] and “no binding” in assay [3].

B1: Nox5 (enzyme, UniProt Q96PH1 1-765)
chain: T1 sequence
In the case of B1, the binding result in assay [1] was “no binding”.
